“And” between values parts separate entries of the source, which are not always exact repeats. Equal values may be shown once. Inconclusive means that the source gave no clear call. Such entries were picked first, then a sample of the others. The source made the active and inactive calls. Calls follow the shape of the dose curve; as a rule, active = well fitted curve in either direction with a large enough effect (not every such curve was filed as active); inconclusive = small, poorly fitted or top-dose-only effect, or another doubt; inactive = flat fitted curve, though single readings scatter.
Assay: NFAT Signaling Pathway (AID 444)
Conditions: Jurkat NFAT-bla M1, carbachol, beta-lactamase ratio, 5 h; at 17.2 µM (top of the series)
From the text: NCGC Assay Overview: The nuclear factor of activated T cells (NFAT) family of transcription factors has been found primarily in most immune system cells and some other non-immune cells. NFAT plays the immunomodulatory role, primarily in T-cell activation and differentiation. NFAT target genes are also involved in the regulation of apoptosis and differentiation in non-immune cell types. The NFAT sequence was engineered to the upstream of the ?-lactamase reporter gene and transfected into Jurkat cells with co-transfection of muscarinic receptor1 [provided by Invitrogen Corp]. When an extracellular stimulus, such as carbachol, binds to the GPCR M1 receptor, it stimulates a signaling cascade that activates NFAT response element and ?-lactamase expression by phosphorylating the NFAT binding protein. This cell based ?-lactamase reporter gene assay can accurately monitor any changes occurring along the NFAT pathway, and can be used for screening small molecule inhibitor or activator upon activation by carbachol EC50 concentration. A small molecular library were screened in a titration series resulting in AC50s (can be either IC50s or EC50s).
NCGC Assay Protocol Summary: The cells were prepared in RPMI 1640 medium containing 0.1% dialyzed FBS and 25 mM HEPES at 1.6 x 10^6cell/ml. The assay was performed in 1536-well plate format as follows: 5 ul of cell preparation 23 nl of compounds 1ul of carbachol (final concentration 1 uM) Briefly centrifuge the plates and incubate at 37 °C for 5 hours 1 ul of CCF4 dye mixture Incubate the plates at RT for 1 hour Read the plate in EnVision plate reader (Ex= 405nm, and Em1=460nm and Em2=530nm). The %Activity was determined from the ratio of 460nm/530nm. Data normalization and AC50 calculations were accomplished using GeneData software.
% is scaled to controls: 0 for no effect and ±100 for the full control effect.

SMILES	activity change, negative = inhibition
OC(c1ccccc1)(c1ccccc1)C1CCNCC1	inconclusive: -50.2% [inhibitor]
COP(=O)(OC)C(O)C(Cl)(Cl)Cl (stereo unspecified)	inconclusive: -30.3% [inhibitor]
Fc1ccc(C(OCCN2CCN(CCCc3ccccc3)CC2)c2ccc(F)cc2)cc1	inconclusive: -50.4% [inhibitor]
C[N+]1(C)[C@@H]2CC[C@H]1CC(OC(=O)C(CO)c1ccccc1)C2 (stereo partly specified)	active: -95.4% and active: -94.2%
NC(=O)CN1CCCC1=O	inactive: -0.917%
CC[C@@]1(O)C(=O)OCc2c1cc1n(c2=O)Cc2cc3ccccc3nc2-1	active: -85.5%
O=c1[nH]c2ccccc2n1C1CCN(CCCC(c2ccc(F)cc2)c2ccc(F)cc2)CC1	inconclusive: -65.9% [inhibitor] and inconclusive: -110% [inhibitor]
O=C(CCCN1CCC2(CC1)C(=O)NCN2c1ccccc1)c1ccc(F)cc1	inactive: -4.55% and inconclusive: -41.3% [inhibitor]
CCC(=O)O[C@H]1CC[C@H]2[C@@H]3CCC4=CC(=O)CC[C@]4(C)[C@H]3CC[C@]12C	inconclusive: -74.3% [inhibitor]
O=C(O)CCCc1ccc(N(CCCl)CCCl)cc1	inconclusive: -35.5% [inhibitor]
Cc1cccc(C)c1NC1=NCCCS1	inconclusive: -31% [inhibitor]
O=C(CCCN1CCC(n2c(=O)[nH]c3ccccc32)CC1)c1ccc(F)cc1	inconclusive: -41.9% [inhibitor]
CC(CCc1ccccc1)NC(C)C(O)c1ccc(O)cc1 (stereo unspecified)	inconclusive: -41.2% [inhibitor]
Clc1ccc(COC(Cn2ccnc2)c2ccc(Cl)cc2Cl)cc1 (stereo unspecified)	inconclusive: -102% [inhibitor]
COC(=O)C1=CCCN(C)C1	inconclusive: 63.6% [activator]
O=P1(NCCCl)OCCCN1CCCl (stereo unspecified)	inactive: -9.45%
CC[C@@H](CO)NC(=O)[C@@H]1C=C2c3cccc4c3c(cn4C)C[C@H]2N(C)C1	inactive: -12.8%
CCC(COC(=O)c1cc(OC)c(OC)c(OC)c1)(c1ccccc1)N(C)C (stereo unspecified)	inconclusive: -18.6% [inhibitor]
CC[N+]1(C)CCCC(OC(=O)C(O)(c2ccccc2)c2ccccc2)C1 (stereo unspecified)	active: -75.8%
Clc1ccc(CSC(Cn2ccnc2)c2ccc(Cl)cc2Cl)cc1 (stereo unspecified)	inconclusive: -116% [inhibitor]
CN(C)[C@@H]1C(=O)C(C(N)=O)=C(O)[C@@]2(O)C(=O)C3=C(O)c4c(O)cccc4[C@@](C)(O)[C@H]3C[C@@H]12	inconclusive: -31.4% [inhibitor]
CN1[C@@H]2CC[C@H]1CC(OC(=O)C1C=Nc3ccccc31)C2 (stereo partly specified)	inconclusive: -67.1% [inhibitor]
O=[N+]([O-])c1cc([As](=O)(O)O)ccc1O	inactive: -8.47%
O=C1CC[C@@]2(O)[C@H]3Cc4ccc(O)c5c4[C@@]2(CCN3CC2CC2)[C@H]1O5	inactive: 1.18%
COc1ccc(Cc2nccc3cc(OC)c(OC)cc23)cc1OC	inconclusive: -53.9% [inhibitor]

Same assay, conditions: Jurkat NFAT-bla M1, carbachol, beta-lactamase ratio, 5 h; at 38 µM (top of the series)

SMILES	activity change, negative = inhibition
CN1[C@@H]2CC[C@H]1CC(OC(=O)c1cc(Cl)cc(Cl)c1)C2 (stereo partly specified)	inconclusive: -36.5% [inhibitor]
Fc1ccc(C(OCCN2CCN(CCCc3ccccc3)CC2)c2ccc(F)cc2)cc1	inconclusive: -92.2% [inhibitor]
c1ccc(C2CC2)c(OCC2=NCCN2)c1	inconclusive: -48.7% [inhibitor]
NC(=O)CN1CCCC1=O	inactive: 1.7%
CC[C@@]1(O)C(=O)OCc2c1cc1n(c2=O)Cc2cc3ccccc3nc2-1	active: -97%
O=c1[nH]c2ccccc2n1C1CCN(CCCC(c2ccc(F)cc2)c2ccc(F)cc2)CC1	inconclusive: -99.9% [inhibitor]
NCCc1ccc(O)cc1	inactive: 5.43%
O=C(CCCN1CCC2(CC1)C(=O)NCN2c1ccccc1)c1ccc(F)cc1	inactive: 10.5%
c1ccc(CCCN2CCN(CCOC(c3ccccc3)c3ccccc3)CC2)cc1	active: -82.7%
Cc1cccc(C)c1NC1=NCCCS1	inactive: -14.8%
COC(=O)C1=CCCN(C)C1	inconclusive: 54.8% [activator]
COc1ccc2c(c[n+](C)c3c4cc5c(cc4ccc23)OCO5)c1OC	inconclusive: -120% [inhibitor]
CC1=NN=C(c2ccc(N)cc2)c2cc3c(cc2C1)OCO3	inactive: 7.54%
CCN(CC)C(=O)N[C@@H]1C=C2c3cccc4[nH]cc(c34)C[C@@H]2N(C)C1	inactive: -9.69% and inactive: -17.6%
COc1ccccc1N1CCNCC1	inactive: -22.1%
COc1ccc(Cc2nccc3cc(OC)c(OC)cc23)cc1OC	inconclusive: -34.9% [inhibitor]
